Results: patent publication US7648999B2, “Activator for peroxisome proliferator-activated receptor δ” (Nippon Chemiphar Co., Ltd., priority 2007, dated 2010)
At least one read-out could not be matched to a standard name with certainty. Some of these results come from one statement about several compounds together.

Tests used:
Assay type in all cases: cell-based
PPARδ (GAL4-hPPARδ LBD) = target: T1, PPARδ (GAL4-hPPARδ LBD) (Homo sapiens, UniProt Q03181); assay: PPARδ transactivation activity (GAL4 chimera luciferase reporter in CV-1 cells); settings: for PPARδ transactivation activity / activating effect (in words): summary statements on Tables 8 and 9
T1 construct: A chimeric receptor expression plasmid (GAL4-hPPARδ LBD), a reporter plasmid (UASx4-TK-LUC); expressed in transfected cells; host or cells: CV-1 cells
T1 sequence (Q03181 211-439 limits assumed): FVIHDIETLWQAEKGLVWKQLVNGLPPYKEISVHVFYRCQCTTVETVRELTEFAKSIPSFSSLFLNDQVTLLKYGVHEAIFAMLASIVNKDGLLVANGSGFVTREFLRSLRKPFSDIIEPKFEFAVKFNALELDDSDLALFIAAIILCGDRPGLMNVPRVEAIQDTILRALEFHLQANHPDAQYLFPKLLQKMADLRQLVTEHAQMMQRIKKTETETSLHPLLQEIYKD
Description: A chimeric receptor expression plasmid (GAL4-hPPARδ LBD), a reporter plasmid (UASx4-TK-LUC) and β-galactosidase (β-GAL) are transfected into CV-1 cells by utilizing a lipofection reagent DMRIE-C (Life Technologies).
(1) Measurement of PPARα, γ, δ Transactivation Activity
CV-1 cells were obtained from Tohoku University Aging Medical Laboratory, Medical Cell Collection Center. All test compounds were dissolved in dimethylsulfoxide (DMSO). Final concentration of DMSO was 0.1%.
CV-1 cells were seeded in 24 well culture plates at 2×10^5 cells per well, and cultured for 24 hours OPTI-MEM I Reduced Serum Medium (Life Technologies, 500 μL/well) containing 4%-fetal bovine serum (FBS). After washing with OPTI-MEM, transfection mixture (250 μL/well) containing 0.03 μg of GAL4-hPPARδ LBD, 0.25 μg of UASx-4-TK-LUC, 0.35 μg of βGAL, and 2 μL of lipofection reagent, DMRIE-C (Life Technologies) were added. The cells were incubated for 5 hours at 37° C.
The cells were washed and incubated for 40 hours in the presence of the test compound (final concentration was 10^−7M or 10^−6M)
The culture medium was removed and the cells were washed with PBS twice. A solubilizing buffer (100 μL/well) containing 25 mM Tris-PO4 (pH 7.8), 15% v/v glycerol, 2% CHAPS, 1% Lecithin, 1% BSA, 4 mM EGTA (pH 8.0), 8 mM MgCl2, 1 mM DTT was added. After the incubation for 10 minutes at room temperature, a portion (20 μL) of the solution was transferred into a 96-well plate. Subsequently, 100 μL of luciferase substrate solution (Piccagene: available from Nippon Gene Co., Ltd.) was added, and a luminous intensity per one second (luciferase activity) was measured using a microluminoreader (Type MLR-100, Corona Electrics Co., Ltd.). Each luciferase activity was corrected by the transfection efficiency which was calculated from β-galactosidase activity. The assay method of β-galactosidase activity was as follows: A portion (50 μL) of the solubilized sample was transferred into another 96-well plate; 100 μL of ONPG (2-nitrophenyl-β-galactopyranoside) solution was added and incubated for 5 minutes at room temperature. 50 μL of a reaction stopping solution (1M sodium carbonate solution) was added. Then the absorbance at 414 nm was measured.

PPARγ (GAL4-hPPARγ LBD) = target: T2, PPARγ (GAL4-hPPARγ LBD) (Homo sapiens, UniProt P37231); assay: PPARγ transactivation activity (GAL4 chimera luciferase reporter in CV-1 cells)
T2 construct: Receptor expression plasmid (GAL4-hPPARα, LBD GAL4-hPPARγ LBD, GAL4-hPPARδ LBD); expressed in transfected cells; host or cells: CV-1 cells
T2 sequence (P37231 238-503 limits assumed): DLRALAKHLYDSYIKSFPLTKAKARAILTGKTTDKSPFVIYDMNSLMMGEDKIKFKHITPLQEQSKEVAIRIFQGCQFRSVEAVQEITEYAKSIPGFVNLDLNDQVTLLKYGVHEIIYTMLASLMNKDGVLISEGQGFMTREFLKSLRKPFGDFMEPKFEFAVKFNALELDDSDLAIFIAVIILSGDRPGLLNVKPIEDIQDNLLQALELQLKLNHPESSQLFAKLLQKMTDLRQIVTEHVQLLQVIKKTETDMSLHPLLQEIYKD

PPARα (GAL4-hPPARα LBD) = target: T3, PPARα (GAL4-hPPARα LBD) (Homo sapiens, UniProt Q07869); assay: PPARα transactivation activity (GAL4 chimera luciferase reporter in CV-1 cells)
T3 construct: Receptor expression plasmid (GAL4-hPPARα, LBD GAL4-hPPARγ LBD, GAL4-hPPARδ LBD); expressed in transfected cells; host or cells: CV-1 cells
T3 sequence (Q07869 239-466 limits assumed): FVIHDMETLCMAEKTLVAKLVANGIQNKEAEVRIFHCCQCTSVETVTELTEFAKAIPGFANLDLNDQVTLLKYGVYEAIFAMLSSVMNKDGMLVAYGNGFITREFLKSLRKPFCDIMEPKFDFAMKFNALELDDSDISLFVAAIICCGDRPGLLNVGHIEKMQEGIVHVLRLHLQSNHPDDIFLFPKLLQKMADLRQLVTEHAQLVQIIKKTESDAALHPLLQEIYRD

[1] = compound at 10^−6 M (value in parentheses)
[2] = compound at 10^−7 M (value without parentheses)
[3] = compound at 10^−7 M, CV-1 cells, 40 hours, positive control 10^−4 M L-165041 = 100%
[4] = compound at 10^−7 M, CV-1 cells, 40 hours, positive control 10^−5 M Rosiglitazone = 100%
[5] = compound at 10^−7 M, CV-1 cells, 40 hours, positive control 10^−4 M WY-14643 = 100%

Compound | Relative activity for PPAR transactivation, δ (PPARδ (GAL4-hPPARδ LBD); [1]) | PPARδ transactivation activity / activating effect (in words) (PPARδ (GAL4-hPPARδ LBD)) | Relative activity for PPAR transactivation, δ (PPARδ (GAL4-hPPARδ LBD); [2]) | also measured
Cc1cc(C(=O)C(C)Cc2nc(-c3ccc(Cl)cc3Cl)oc2C(C)C)ccc1OC(C)(C)C(=O)O (stereo not drawn) [Example 23, 2-[4-[3-[2-(2,4-Dichlorophenyl)-5-isopropyl-4-oxazolyl]-2-methylpropionyl]-2-methylphenoxy]-2-methylpropionic acid] | (93) % of control | potent PPARδ transactivation activities | – | –
Cc1cc(OCC(=O)O)ccc1C(=O)CCc1nc(-c2ccc(Cl)cc2Cl)oc1C(C)C [Example 15, [4-[3-[2-(2,4-Dichlorophenyl)-5-isopropyl-4-oxazolyl]propionyl]-3-methylphenoxy]acetic acid] | (58) % of control | potent PPARδ transactivation activities | – | –
Cc1ccc(-c2nc(C(C)C)c(CCC(=O)c3ccc(OCC(=O)O)c(C)c3)s2)cc1 [Example 49, [4-[3-[4-Isopropyl-2-(4-methylphenyl)-5-thiazolyl]propionyl]-2-methylphenoxy]acetic acid] | – | potent PPARδ transactivation activities | 56 % of control | Relative activity for PPAR transactivation, γ (PPARγ (GAL4-hPPARγ LBD); [2]): 2 % of control; Relative activity for PPAR transactivation, α (PPARα (GAL4-hPPARα LBD); [2]): 0 % of control
Cc1cc(C(=O)CCc2sc(-c3ccc4ccccc4c3)nc2C(C)C)ccc1OCC(=O)O [Example 29, [4-[3-[4-Isopropyl-2-(2-naphthyl)-5-thiazolyl]propionyl]-2-methylphenoxy]acetic acid] | – | potent PPARδ transactivation activities | 27 % of control | –
Cc1cc(C(=O)CCc2nc(-c3ccc(Cl)cc3Cl)sc2C(C)C)ccc1OCC(=O)O [Example 39, [4-[3-[2-(2,4-Dichlorophenyl)-5-isopropyl-4-thiazolyl]propionyl]-2-methylphenoxy]acetic acid] | (65) % of control | potent PPARδ transactivation activities | – | –
Cc1cc(C(=O)CCc2sc(-c3ccc4ccccc4c3)nc2C(C)C)ccc1OC(C)(C)C(=O)O [Example 30, 2-[4-[3-[4-Isopropyl-2-(2-naphthyl)-5-thiazolyl]propionyl]-2-methylphenoxy]-2-methylpropionic acid] | (76) % of control | potent PPARδ transactivation activities | – | Relative activity for PPAR transactivation, γ (PPARγ (GAL4-hPPARγ LBD); [1]): (47) % of control; Relative activity for PPAR transactivation, α (PPARα (GAL4-hPPARα LBD); [1]): (85) % of control
CCCCc1ccc(-c2nc(C(C)C)c(CCC(=O)c3ccc(OCC(=O)O)c(C)c3)s2)cc1 [Example 31, [4-[3-[2-(4-Butylphenyl)-4-isopropyl-5-thiazolyl]propionyl]-2-methylphenoxy]acetic acid] | – | potent PPARδ transactivation activities | 51 % of control | –
Cc1cc(C(=O)CCc2nc(-c3ccc(Cl)cc3Cl)oc2C(C)C)ccc1SCC(=O)O [Example 7, [4-[3-[2-(2,4-Dichlorophenyl)-5-isopropyl-4-oxazolyl]propionyl]-2-methylphenylsulfanyl]acetic acid] | – | – | – | Relative activity for PPAR transactivation, δ (PPARδ (GAL4-hPPARδ LBD); [3]): 61 % of control; Relative activity for PPAR transactivation, γ (PPARγ (GAL4-hPPARγ LBD); [4]): 3 % of control; Relative activity for PPAR transactivation, α (PPARα (GAL4-hPPARα LBD); [5]): 0 % of control
Cc1cc(C(=O)C(C)Cc2nc(-c3ccc(Cl)cc3Cl)oc2C(C)C)ccc1OCC(=O)O (stereo not drawn) [Example 22, [4-[3-[2-(2,4-Dichlorophenyl)-5-isopropyl-4-oxazolyl]-2-methylpropionyl]-2-methylphenoxy]acetic acid] | – | potent PPARδ transactivation activities | 52 % of control | Relative activity for PPAR transactivation, γ (PPARγ (GAL4-hPPARγ LBD); [2]): 0 % of control; Relative activity for PPAR transactivation, α (PPARα (GAL4-hPPARα LBD); [2]): 0 % of control
Cc1cc(OC(C)(C)C(=O)O)ccc1C(=O)CCc1nc(-c2ccc(Cl)cc2Cl)oc1C(C)C [Example 17, 2-[4-[3-[2-(2,4-Dichlorophenyl)-5-isopropyl-4-oxazolyl]propionyl]-3-methylphenoxy]-2-methylpropionic acid] | (90) % of control | potent PPARδ transactivation activities | – | –
Cc1cc(C(=O)CCc2nc(-c3ccc(Cl)cc3O)oc2C(C)C)ccc1OC(C)(C)C(=O)O [Example 8, 2-[4-[3-[2-(2-Hydroxy-4-chlorophenyl)-5-isopropyl-4-oxazolyl]propionyl]-2-methylphenoxy]-2-methylpropionic acid] | – | – | – | Relative activity for PPAR transactivation, δ (PPARδ (GAL4-hPPARδ LBD); [3]): 48 % of control; Relative activity for PPAR transactivation, γ (PPARγ (GAL4-hPPARγ LBD); [4]): 4 % of control; Relative activity for PPAR transactivation, α (PPARα (GAL4-hPPARα LBD); [5]): 0 % of control
Cc1cc(C(=O)CCc2sc(-c3cc(F)cc(F)c3)nc2C(C)C)ccc1OCC(=O)O [Example 27, [4-[3-[2-(3,5-Difluorophenyl)-4-isopropylthiazol-5-yl]propionyl]-2-methylphenoxy]acetic acid] | – | potent PPARδ transactivation activities | 37 % of control | –
C=C(CCc1nc(-c2ccc(Cl)cc2Cl)oc1C(C)C)c1ccc(OCC(=O)O)c(C)c1 [Example 20, [4-[4-[2-(2,4-Dichlorophenyl)-5-isopropyl-4-oxazolyl]-1-buten-2-yl]-2-methylphenoxy]acetic acid] | (72) % of control | potent PPARδ transactivation activities | – | –
Cc1cc(C(=O)CCc2sc(-c3cc(F)cc(F)c3)nc2C(C)C)ccc1OC(C)(C)C(=O)O [Example 28, 2-[4-[3-[2-(3,5-Difluorophenyl)-4-isopropyl-5-thiazolyl]propionyl]-2-methylphenoxy]-2-methylpropionic acid] | – | potent PPARδ transactivation activities | 21 % of control | Relative activity for PPAR transactivation, α (PPARα (GAL4-hPPARα LBD); [2]): 0 % of control
CCCCc1ccc(-c2nc(C(C)C)c(CCC(=O)c3ccc(OC(C)(C)C(=O)O)c(C)c3)s2)cc1 [Example 32, 2-[4-[3-[2-(4-Butylphenyl)-4-isopropyl-5-thiazolyl]propionyl]-2-methylphenoxy]-2-methylpropionic acid] | – | potent PPARδ transactivation activities | 14 % of control | Relative activity for PPAR transactivation, α (PPARα (GAL4-hPPARα LBD); [2]): 1 % of control
C=C(CCc1nc(-c2ccc(Cl)cc2Cl)oc1C(C)C)c1ccc(OC(C)(C)C(=O)O)c(C)c1 [Example 21, 2-[4-[4-[2-(2,4-Dichlorophenyl)-5-isopropyl-4-oxazolyl]-1-buten-2-yl]-2-methylphenoxy]-2-methylpropionic acid] | (62) % of control | potent PPARδ transactivation activities | – | –
